In all, about 16,000 sequences were measured (“Z-score”: median about -0.37, highest 2% from about 3.1 on). Some of the results follow.
test system: RBM10 RRM1-ZnF-RRM2 (GST-tagged construct); test: RNAcompete 7-mer binding Z-score; higher = stronger binding preference
Procedure: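 RNAcompete: 20 pmol GST-tagged RBM10 RNA-binding constructs were incubated with a designed RNA pool of about 241,000 sequences up to 41 nt (1.5 nmol) on glutathione beads for 30 min at 4 °C and washed. Bound RNAs were identified by microarray hybridisation. Each RNA 7-mer is scored by a one-sided Z-score of its enrichment, computed over probes that contain the 7-mer within longer pool sequences.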

Sequence	RNAcompete 7-mer binding Z-score
AAAAUAG	-0.00877
UCGCCGU	-0.562
AGAAUUC	-0.457
CUAGUUG	-0.449
UGAAUAU	-0.311
GAUUUUU	-0.548
GGUGAAG	2.71
CUAGCGU	-0.522
CCUCUCC	-0.65
CCACAGC	-0.657
UAGUUUG	-0.0962
CUGUGGG	1.63
GCUGCAG	0.184
CCAAGCC	-0.657
AGCUACU	-0.551
UAAUCGC	-0.766
AGGAUCG	0.501
GCCAGUC	-0.482
AUUAGCU	-0.464
ACUGCAG	0.126
CCUAGCA	-0.85
AAGUUGG	1.43
UAAUGCG	-0.26
GUCCCUU	-0.897
GAACCCC	-0.519

Sequence	RNAcompete 7-mer binding Z-score
GGGACAC	1.27
AGUACAA	-0.0707
UACAUAA	-0.493
GGGGGGG	2.58
GACUGCG	-0.315
UUUGAAA	-0.551
CCUACGU	-0.814
ACGAAAG	0.654
CCUCAGC	-0.843
CUACGCU	-0.701
ACGUCGC	-0.686
ACAUGUC	-0.592
GGCAGCU	0.108
CGCGUAA	-0.22
AACGGGG	3.65
GUAUUGA	-0.107
UUAAACU	-0.555
ACUUAAC	-0.788
GGUGUCC	0.49
AUCUCCU	-0.799
CCUGUCG	-0.73
UAGUCGC	-0.508
CUAGCAG	-0.38
CUGGACA	-0.0743
CCUGCGA	-0.69

Sequence	RNAcompete 7-mer binding Z-score
UAAGGCA	1.84
CAAGGGC	1.45
ACUACUG	-0.599
GUGGGAC	2.4
GGAGGGU	3.8
UACGGCC	-0.562
ACUAAUU	-0.694
CACGAUA	-0.369
CACGCGC	-0.602
UGGCCGC	-0.231
AAGCGUA	0.385
GACGACG	0.275
CGCAUAU	-0.388
GCUCACA	-0.384
CCGUUAA	-0.77
CCAUCAC	-0.715
ACCCUUG	-0.825
GACCAUG	-0.57
ACGGCCC	-0.628
UAACUAU	-0.599
CGUCUAU	-0.661
CCCCCUA	-0.5
GCUUACG	-0.541
CGACGUG	0.25
UUAAUUC	-0.694

Sequence	RNAcompete 7-mer binding Z-score
CGCGCUU	-0.821
GAGAGGU	2.2
GUCUGCA	-0.57
UCCAAGU	-0.42
GGAUCCC	-0.0343
CAACGAG	0.337
AUUAUUC	-0.723
UGCGCGC	0.0932
GCCUGAG	-0.329
AAACACU	-0.621
AAACCCU	-0.785
AGGCCAU	-0.388
AUGUACU	-0.435
GGCGUAG	1.86
CCGCGAU	-0.624
CCUCGUA	-0.723
CUAUAGG	0.516
ACAAGGU	1.89
CGAACUA	-0.584
AGUUUAA	-0.49
UGGACAC	0.986
AGGCUCG	-0.191
UAUCAGA	-0.238
AAUAAGC	-0.158
AAGGUAU	2.03

Sequence	RNAcompete 7-mer binding Z-score
GAGUGUA	1.12
GGCCGGU	0.279
AGGGGCU	1.07
GCGUCGU	0.213
AAGUAAA	0.0568
UACAAGU	-0.256
UGAUGUA	0.0277
AGUGCCG	-0.158
ACGUUGA	-0.0197
UGUAAAU	-0.246
GUCGAAC	-0.173
CCUAUAU	-0.799
CGGCCCU	-0.715
GUUAAGU	-0.0379
AGGCUGC	-0.0962
UCCCCUA	-0.734
AAGUCAA	0.0932
UCUCCAA	-0.672
CGGACCU	-0.632
CUAAAUA	-0.497
GUCCGUG	-0.154
AGUAGUG	1.35
GAGCCAG	0.0277
CCUGGUG	-0.26
GCCAGGG	1.75

Sequence	RNAcompete 7-mer binding Z-score
UGGAAAU	1
CUCGGCU	-0.785
CCGAUAU	-0.643
CAUUGCG	-0.519
UGUUGCG	-0.22
AUUCUUC	-0.836
AAAGACU	-0.402
GACUGAA	-0.249
GAUAGGC	1.35
UUCUGGG	0.192
CUAGCUA	-0.712
CCUCCAA	-0.857
UGGCGUG	1.19
UGUAACC	-0.435
CGCCAUU	-0.941
CCUACCA	-0.694
CGAAAUA	-0.34
CUUACGA	-0.752
ACUGCCU	-0.978
GCUACAG	-0.216
CGAACUC	-0.719
GGUAGUU	0.847
CUGCUCC	-0.897
AAAAUUG	0.0714
GUCUCGG	0.0859

Sequence	RNAcompete 7-mer binding Z-score
AGUACUC	-0.639
CGCCGUG	-0.315
UCGCCAU	-0.774
GGGAGGG	4.06
UCGGCGA	0.385
AAUCAUC	-0.694
AGCAGAA	0.701
AACCAAC	-0.621
CUGACGG	0.243
AAGCAUU	-0.508
CUCAUCU	-0.85
UCUCACC	-0.85
AAUUUUA	-0.723
GGAGAUC	0.993
GUCUUAG	-0.46
CACCGCU	-0.788
UUUUCUG	-0.795
UAGGAUG	2.27
UAAAACU	-0.533
UCUUAUU	-0.803
CGUCAUU	-0.646
AAGUUCA	-0.519
CGGGGAC	1.71
CAAGGCG	1.49
CCGGGAU	0.661

Sequence	RNAcompete 7-mer binding Z-score
CCAUAGC	-0.737
CAUGAGC	-0.337
CGAGGUU	0.727
CGUAAGG	0.844
GCGUCAU	-0.413
ACCUCUU	-1.01
UUCCAAG	-0.42
CCGAACU	-0.839
AGAUUAG	0.945
UUGAACU	-0.584
AAGACAG	0.53
AACUGGU	-0.0379
GGCGGCG	1.53
GGAUUCC	-0.176
CCCCUGA	-0.508
CGUUUGG	0.00944
CUUGUAC	-0.854
GAUAAUG	0.807
AACCGGG	1.31
CUUGUGC	-0.923
UUAGGUG	1.25
AGUCCUC	-0.708
CACGUAU	-0.413
UGAGGCA	1.31
UGGUCAC	0.13

Sequence	RNAcompete 7-mer binding Z-score
CCACACG	-0.5
UACGUAG	0.603
CACCCGC	-0.694
ACCCCUA	-0.741
ACAUCUG	-0.668
UCUAACG	-0.646
UUCUCUG	-0.792
UUACGGG	1.11
CCAACGG	0.275
ACAUCUA	-0.679
ACAAAAU	-0.424
UCACUAG	-0.373
AACUGCC	-0.766
UCUGGUG	-0.0161
CAAGCGC	-0.326
UGCCGGC	-0.581
ACUAGCA	-0.409
GCUAUAG	0.315
CGCGGGC	0.825
AAUAUUG	-0.202
UAGCGUC	-0.449
CUUGCCU	-0.985
GGUUGCG	1.41
UACUCAG	-0.526
GUCCAUA	-0.526

Sequence	RNAcompete 7-mer binding Z-score
AGCUGAA	0.17
ACUCCUU	-0.883
CCAUUUA	-0.97
CGAAUCG	-0.522
ACAGUGG	1.62
CGCGCCG	-0.522
UCCUUUC	-0.712
AAAUCCC	-0.887
AAGAACG	0.257
CAAGCUG	-0.511
CAAUCCG	-0.511
CCAAUGA	-0.409
AUCUGGA	0.0204
AAGAAGG	3.81
AGGGACU	1.09
UGGUAGA	1.89
UAAAAGU	-0.0743
ACUUCAC	-0.876
GGUUCGA	0.814
GUGUGUU	0.188
CCUUGAC	-0.908
GUUUACA	-0.413
UUAGUAG	0.363
GAGCGAU	0.658
CAAUAUG	0.0277

Sequence	RNAcompete 7-mer binding Z-score
AUCAUAG	-0.103
AAGUUUG	-0.176
CGCGGUU	0.0495
CGUAAGC	-0.235
GGUCUAG	0.0604
CACCCAC	-0.504
GGCUCUU	-0.632
UUUGGAG	0.924
CAGUGCA	0.166
ACGAGCA	0.13
GUCCAUC	-0.548
GGCGUCG	1.01
CACCCCA	-0.49
UUCGAUC	-0.781
GCGACAG	0.709
AAUGAUA	0.17
AGAGUAU	0.283
UACAGGA	1.72
UUGCAAC	-0.555
GGUGCAU	1.16
UAUGGAU	0.789
ACGCCAU	-0.799
CGCCACA	-0.85
CCCACUU	-0.868
UGUCAAG	-0.3

Sequence	RNAcompete 7-mer binding Z-score
AUACGAU	-0.144
ACGAUAC	-0.413
GGGCUGC	1.14
UGGGGUU	2.78
CCCAGGG	0.348
CGGCCGU	-0.267
CAACAGU	-0.216
GCUUCGU	-0.661
AGUUGUC	-0.719
CACUACU	-0.617
CGAUGGG	2.73
CAGGUAC	0.643
UGCGGCA	0.29
ACCUGUA	-0.741
UUGGUCA	-0.195
GGGCGCU	0.647
UAAACCG	-0.38
UACAGAA	-0.289
UUAUAGG	0.64
AUACAAC	-0.18
CACCUGU	-0.744
CUUGGUA	-0.154
UAAGUAC	-0.548
GACAGUG	0.989
GGAUGAC	1.43

Sequence	RNAcompete 7-mer binding Z-score
UUACCAC	-0.351
CAGGGGG	2.58
UCAAACU	-0.737
CUGAUCU	-0.941
GUAACCU	-0.457
UGACUUU	-0.825
ACCGGUA	0.279
GUGUGGC	1.61
CAACGUG	0.122
GUGUUAG	0.294
AACCUAG	-0.391
UUCCAAC	-0.737
UCUGCCG	-0.759
AAGAAAU	-0.213
CCGUACU	-0.781
GGCAGAC	0.574
GUAAUGC	0.108
ACGUCCC	-0.799
GUACCGG	0.72
GAUACAU	0.166
AGCUGAC	-0.533
CAGCGAC	0.122
UUAGUUC	-0.643
UUAGAUU	-0.446
CUUGGCC	-0.748

Sequence	RNAcompete 7-mer binding Z-score
GCUCUUU	-0.828
CCACUAC	-0.683
CUGCGAG	-0.00512
UUCUCUU	-0.704
AUGCACU	-0.537
CUAGACA	-0.621
AAAGUCC	-0.442
AGUUUUA	-0.515
AGUGGCG	2.58
AUCUACU	-0.806
CGUAAAG	-0.0743
CGACUCA	-0.766
UAGUGUC	-0.402
CCAGCUA	-0.719
UUCUACG	-0.73
ACUGACA	-0.42
AGCUCCC	-0.639
CUUCCUC	-0.85
GCUAUGC	-0.522
AGGCCGC	-0.759
AAUUUCG	-0.694
CCGCCAU	-0.883
CAACCUA	-0.657
UUUUACG	-0.763
GUGACAG	1.08

Sequence	RNAcompete 7-mer binding Z-score
AGGGAUG	4.22
AAGGUUA	3.06
GUGGGGA	4.25
AGGUUUC	0.184
GUAGAGU	1.32
UCAAUCG	-0.526
UAGUCAC	-0.53
UGAAUGA	0.0386
GCAUAGA	0.323
CCUGCUG	-0.799
AGUAGCU	-0.435
GCCAGGC	0.119
GAUACUG	-0.118
GCCAUAG	-0.195
CGAGCCA	-0.318
GCCGCCU	-0.748
ACAGAAU	-0.187
